The supplement of paper PMC3334620
Whole data set: some 33,000 sequences, median “E-score (-0.5 to 0.5)” near -0.056, cut for the highest 2% near 0.38. The list shows a part of the results.

Target: Stb4 (UniProt P50104)
Test: PBM E-score (8-mer binding enrichment) (E-score (-0.5 to 0.5)); higher = stronger / more preferred TF binding; most listed sequences are background and not binding sites
Details: protein concentration: 200 nM; construct: GST-DNA-binding domain
Procedure, shortened: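 Yeast transcription factors, full-length or as DNA-binding domains, were expressed with a GST tag using PURExpress in vitro transcription/translation. At about 100-200 nM they were applied to universal all-10-mer Agilent arrays, double-stranded by primer extension on fresh or once-stripped slides. Fluorescent anti-GST detected bound protein, and masliner normalised the scans. E-scores for ungapped eight-base words, pooled with reverse complements, came from the Universal PBM Analysis Suite.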

Row | Sequence | PBM E-score
1 | GAATTTGC | 0.131
2 | GGTGAGAC | -0.00138
3 | AGTCTTCC | 0.103
4 | AGGAAAGC | -0.0848
5 | ACTAAAGT | -0.161
6 | CGACAATC | 0.159
7 | AGTGATCA | -0.172
8 | AGACGTAT | -0.131
9 | GGCGCACC | 0.024
10 | CCAAACCA | -0.162
11 | AACTGCAG | -0.241
12 | GTTATTAA | 0.141
13 | GACACTTA | 0.00204
14 | GCTGCAGA | -0.0718
15 | AAACACTT | -0.114
16 | ATGTCAAA | -0.078
17 | AACGCGAG | -0.0588
18 | TAGGATCA | -0.0704
19 | ACACGCAA | -0.238
20 | GCAACCCA | -0.1
21 | GCCCCGGA | 0.385
22 | ACTGACCC | 0.192
23 | CGGGTCTA | 0.245
24 | AGTAGTGG | -0.11

Row | Sequence | PBM E-score
25 | AATTAGAA | -0.0287
26 | ACATGTCA | -0.226
27 | AGGCGGGC | -0.0152
28 | ACCCGTAC | 0.198
29 | ATAAAGGC | 0.0147
30 | AGAACTCA | -0.0669
31 | CGGTCTCC | 0.104
32 | ACGATACG | -0.314
33 | CGAAGGGA | -0.0506
34 | GGCAACGA | 0.0169
35 | GAATCGGA | 0.38
36 | CTAGTCCA | -0.153
37 | CCCGACCG | 0.327
38 | AGTTTGAT | 0.0051
39 | CAAAGTGA | -0.0524
40 | CAACCCCA | -0.0266
41 | CAGACACC | -0.0503
42 | AAATGGCA | -0.138
43 | GTAGTATA | -0.0794
44 | AAGGCTTA | -0.123
45 | CATGCTCG | 0.0207
46 | ATGGGACG | -0.184
47 | CAAAGGGC | -0.176
48 | CTTTTAAA | 0.0635

Row | Sequence | PBM E-score
49 | ATTACCTG | -0.0886
50 | CCGCAGCA | 0.128
51 | AAGGCCGT | -0.0669
52 | ACCGCATG | -0.21
53 | AGGCGCCG | 0.0647
54 | AGTGTTAC | 0.0516
55 | ACGCTTGA | -0.308
56 | AACGTAAT | -0.262
57 | AGGCTCGC | -0.00633
58 | CGAAGGAA | 0.0508
59 | ATAAGGGA | -0.159
60 | ATCGGAGC | 0.282
61 | GAGGGACA | -0.206
62 | ATGTTAAT | 0.0362
63 | CCAGCCGC | 0.181
64 | AGATTAAA | -0.0781
65 | CCATTGAC | -0.243
66 | ATTCTAAA | -0.0011
67 | TCCGTTCA | 0.191
68 | AGAGTACG | -0.0851
69 | CATAGGAA | -0.13
70 | GGCTATGA | 0.111
71 | TATTTGGA | -0.048
72 | GAGGACCA | -0.0556

Row | Sequence | PBM E-score
73 | CCACGAGA | -0.144
74 | AGTCCTCC | -0.0813
75 | CCCAGACA | -0.121
76 | GCACTGAC | -0.0863
77 | CCCGATGC | 0.349
78 | GCCCTGGA | -0.0528
79 | ACACAAAC | 0.0313
80 | ACACCAGT | -0.269
81 | AGAACCCA | -0.243
82 | CTAGAGTA | -0.0966
83 | AATTCGTC | -0.0958
84 | ATCAATAG | -0.11
85 | CTCCCTCA | -0.23
86 | AACCCTTC | 0.00281
87 | ATAGGACA | -0.399
88 | CCACGTTA | -0.168
89 | AAATGGGG | -0.344
90 | ACTATCCA | 0.0303
91 | CGCGCAAC | -0.0443
92 | ATGGACCA | -0.138
93 | GTGTGTTA | -0.0591
94 | ATCCGTGC | 0.285
